Ten molecules from US20250297021A1 (SHANDONG SIMCERE BIOPHARMACEUTICAL CO NO 1, published 2025) can be followed below.

Changes are numbered by the printed parent chain.

Test [1] has as its target T1, BCMA expressed endogenously on U266 and H929 cells (UniProt Q02223 1-184, limits assumed).
T1 construct: whole, on cells; The cell line (U266 or H929) is named under assay in each row; also called B cell maturation antigen; CD269
T1 sequence (looked up): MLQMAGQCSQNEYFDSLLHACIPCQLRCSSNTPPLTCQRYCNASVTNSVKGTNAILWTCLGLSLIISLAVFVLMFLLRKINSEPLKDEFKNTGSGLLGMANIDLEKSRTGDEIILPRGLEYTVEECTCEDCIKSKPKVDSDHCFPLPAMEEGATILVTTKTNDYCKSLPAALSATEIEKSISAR
Kind of test: FACS on U266 cells. As to the method:
(§1) The desired cells were scale-up cultured in T-75 cell culture flasks to the logarithmic growth phase, and the cells were pipetted into a single cell suspension. After the cells were counted, the cells were centrifuged and the cell pellet was resuspended in FACS buffer (PBS+2% fetal calf serum) to 2×10⁶ cells per ml, and the suspension was added to the 96-well FACS reaction plate at 50 μl per well, then the sample to be tested of the chimeric antibody was added at 50 μl per well and the mixture was incubated at 4° C. for 1 h. The obtained mixture was centrifuged and washed 3 times with a PBS buffer. […] The obtained mixture was centrifuged and washed 3 times with a PBS buffer. 100 μl of the mixture was taken for detection and result analysis by FACS (FACS Canto™, purchased from BD Company). Data analysis was performed by software (FlowJo) to obtain the mean fluorescence intensity (MFI) of the cells. Then, a software (GraphPad Prism8) was used for analysis, data fitting and EC50 calculation. The results are shown in Table 10 and FIGS. 10A-10B, FIGS. 11A-11B, and FIGS. 12A-12B. All seven chimeric antibodies bind to three types of BCMA-expressing endogenous cells.
(§2) The specific method was the same as that in Example 5 (C). First, the binding of humanized antibodies to U266 cells was detected. Based on the results, some humanized antibodies were selected and tested for binding to H929 cells. The remaining humanized antibodies were not tested for binding to H929 cells by FACS (indicated by “/” in the table). All humanized antibodies bind to U266 cells, and all humanized antibodies that bind to the H929 cell in the test bind to H929 cells.

The target of a further test is T2, human BCMA-His protein (human, UniProt Q02223 1-54).
T2 construct: Analyte in the SPR assay; also called human BCMA protein; BCMA antigen protein; not shown: His tag
T2 sequence (looked up): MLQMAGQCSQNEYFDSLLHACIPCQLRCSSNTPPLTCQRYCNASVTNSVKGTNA
Briefly: SPR, antibody captured on Protein A chip, BCMA-His as analyte. As for the experimental part:
A sample buffer and a running buffer were HBS-EP+ (10 mM HEPES, 150 mM NaCl, 3 mM EDTA and 0.05% surfactant P20) (GE Healthcare; BR-1006-69). The flow-through cell was set to 25° C. The sample block was set to 16° C. Both were pretreated with the running buffer. In each cycle, an antibody to be tested was first captured with a Protein A chip, and then a single concentration of BCMA antigen protein was injected. The binding and dissociation processes of the antibody and the antigen protein were recorded, and finally Glycine pH 1.5 (GE Helthcare; BR-1003-54) was used to complete chip regeneration. Binding was measured by injecting different concentrations of BCMA-His in solution for 240 s with a flow rate of 30 μL/min. The concentration started from 200 nM (see the detailed results for the actual concentration in the test) and was diluted at 1:1, making a total of 5 concentrations. The dissociation phase was monitored for up to 600 s and was triggered by switching from sample solution to running buffer. The surface was regenerated by washing with a 10 mM glycine solution (pH 1.5) for 30 s at a flow rate of 30 μL/min. Bulk refractive index difference was corrected by subtracting the response obtained from the goat anti-human Fc surface. Blank injection was also subtracted (=double reference). For calculation of apparent KD and other kinetic parameters, Langmuir 1:1 model was used. The binding rate (Kₐ), dissociation rate (Kdis) and binding affinity (KD) of the chimeric antibodies to human BCMA protein are shown in the table, wherein REGN5459-hlgG1 and HPN217-hHcAb antibodies were used as controls.
The specific method was the same as that in Example 6. The binding rate (Kₐ), dissociation rate (Kdis) and binding affinity (KD) of the humanized antibodies to human BCMA protein are shown Table 38, wherein REGN5459-hlgG1 antibody is used as a control.
Background: Surface plasmon resonance follows binding to a sensor surface in real time, without labels.

Test [2] has as its target T1, BCMA expressed endogenously on U266 and …. Kind of test: FACS on H929 cells. As for the experimental part:
as §1, §2

B1: BCMA-05 VL1VH2a (Fc fusion)
scFv: EGQMVQSGAEVKKPGSSVKVSCKASGYMFTDHTFHWVRQAPGQGLEWMGYIYPRDQNTKYNEKFKGRVTITADKSTSTAYMELSSLRSEDTAVYYCARAGYYGSSHAMDYWGQGTTVTVSSGGGGSGGGGSGGGGSDIQMTQSPSSLSASVGDRVTITCKASQDVSTAVAWYQQKPGKSPRLLIYSASSRYTGVPSRFSGSGSGTDFTFTISSLQPEDIATYYCQQLYSTPWTFGGGTKVEIK[human IgG1 Fc with C220S (EU numbers) not spelt out]
notes: humanized scFv-Fc
For the molecule B1, in test [1], the half-maximal effective concentration (EC50) worked out at 9.27 nM and the “Maximum mean fluorescence intensity” value worked out at 2640. For the same molecule, in the test with human BCMA-His protein, the Kd was 0.0258 nM, the koff came out at 2.43e-05 s⁻¹ and the on-rate constant (kon) worked out at 942000 M⁻¹ s⁻¹. Moreover, in test [2], the EC50 was 6.54 nM and the “Maximum mean fluorescence intensity” value came to 15100.

B2: BCMA-05 VL2VH2a (Fc fusion)
scFv: B1 scFv with S196D
notes: humanized scFv-Fc
For B2, in test [1], it took 16.6 nM to reach a half-maximal effect (EC50) and the “Maximum mean fluorescence intensity” value came out at 2450. For the same molecule, in the test with human BCMA-His protein, the affinity, expressed as Kd, was 0.0267 nM; the off-rate (koff) amounted to 2.6e-05 s⁻¹; the kon worked out at 975000 M⁻¹ s⁻¹. Further, in test [2], the 50% effective concentration (EC50) turned out to be 8.72 nM and the “Maximum mean fluorescence intensity” value came to 14400.

B3: BCMA-mAb02 (Fc fusion)
scFv: EVQLVESGGDLVQPGESLKLSCESNAYEFPSYDMSWVRKTPEKRLELVAAINSDGGITYYPDTMERRFIISRDNTKKTLYLQMSSLRSEDTALYYCARHGYGGGAYVLDYWGQGTSVTVSSGGGGSGGGGSGGGGSDIVMTQSQKFMSTTVGDRVRITCKASQNVGTAVAWYQQKPGQSPKVLIYSASSRYTGVPDRFTGSGSGTDFTLTINNMQSEDLADYFCQQYSNYHLTFGTGTKLELK[human IgG1 Fc with C220S (EU numbers) not spelt out]
notes: human-mouse chimeric scFv-Fc
Regarding B3, in test [1], the EC50 was 17.6 nM and the “Maximum mean fluorescence intensity” value is 2890. Besides, in the test with human BCMA-His protein, the equilibrium dissociation constant (Kd) came to 0.236 nM, the off-rate constant (koff) was 0.000272 s⁻¹ and the kon was found to be 1.16e+06 M⁻¹ s⁻¹. In test [2], a half-maximal response (EC50) required 14.9 nM and the “Maximum mean fluorescence intensity” value turned out to be 14300.

B4: BCMA-mAb04 (Fc fusion)
scFv: QVQLQQSGAELARPGASVDLSCKASGYSFTSYGISWVKLRTGQGLEWIGEIYPRDDITYYNEKFKGKTTLTADKSSSTAYMELRSLTSEDSAVYFCARHDYYYVNSVSAMDYWGQGTSVTVSSGGGGSGGGGSGGGGSDIVMSQSPSSLAVSVGEKVTMSCKSSQSLLYSSNQKNYLAWYQQKPGQSPKLLIYWASTRYSGVPDRFTGSGSGTDFTLTVSSVRAEDLALYYCQQYYIYPWTFGGGTKLEIK[human IgG1 Fc with C220S (EU numbers) not spelt out]
notes: human-mouse chimeric scFv-Fc
For B4, in test [1], the midpoint of the response, the EC50, lay at 47.6 nM and the “Maximum mean fluorescence intensity” value was determined as 2980. In the test with human BCMA-His protein, this molecule gave a Kd of 0.097 nM, an off-rate constant (koff) of 0.000104 s⁻¹ and an association rate constant (kon) of 1.07e+06 M⁻¹ s⁻¹. Besides, in test [2], the concentration giving a half-maximal response (EC50) was determined as 27.2 nM and the “Maximum mean fluorescence intensity” value was 8640.

B5: BCMA-05 VL3VH2a (Fc fusion)
scFv: EGQMVQSGAEVKKPGSSVKVSCKASGYMFTDHTFHWVRQAPGQGLEWMGYIYPRDQNTKYNEKFKGRVTITADKSTSTAYMELSSLRSEDTAVYYCARAGYYGSSHAMDYWGQGTTVTVSSGGGGSGGGGSGGGGSDIVMTQSPDSLAVSLGERATINCKASQDVSTAVAWYQQKPGQSPRLLIYSASSRYTGVPDRFSGSGSGTDFTLTISSLQAEDVAVYYCQQLYSTPWTFGGGTKVEIK[human IgG1 Fc with C220S (EU numbers) not spelt out]
notes: humanized scFv-Fc
On to B5, for which, in test [1], the response was half-maximal at 18.4 nM (EC50) and the “Maximum mean fluorescence intensity” value turned out to be 2240. Further, in the test with human BCMA-His protein, the affinity, expressed as Kd, was 0.0281 nM; the dissociation rate constant (koff) turned out to be 2.67e-05 s⁻¹; the on-rate (kon) was found to be 947000 M⁻¹ s⁻¹. Besides, in test [2], the EC50 turned out to be 15.4 nM and the “Maximum mean fluorescence intensity” value came out at 14100.

B6: BCMA-02 VL4VH8 (Fc fusion)
scFv: EVQLVESGGGVVQPGRSLRLSCASNAYEFPSYDMSWVRQAPGKGLELVAAINSDGGITYYPDTMERRFTISRDNTKKTLYLQMSSLRAEDTAVYYCARHGYGGGAYVLDYWGQGTTVTVSSGGGGSGGGGSGGGGSDIVMTQSPDSLAVSLGERATINCKASQNVGTAVAWYQQKPGQSPKVLIYSASSRYTGVPDRFSGSGSGTDFTLTISSLQAEDVAVYYCQQYSNYHLTFGQGTKLEIK[human IgG1 Fc with C220S (EU numbers) not spelt out]
notes: humanized scFv-Fc
In the case of B6, in test [1], the midpoint of the response, the EC50, lay at 34.2 nM and the “Maximum mean fluorescence intensity” value was found to be 2730. In addition, in the test with human BCMA-His protein, the dissociation constant Kd turned out to be 0.314 nM, the koff came to 0.00034 s⁻¹ and the kon came to 1.08e+06 M⁻¹ s⁻¹. In test [2], the half-maximal effective concentration (EC50) amounted to 16.4 nM and the “Maximum mean fluorescence intensity” value was found to be 15300.

B7: BCMA-02 VL4VH9 (Fc fusion)
scFv: B6 scFv with A23E
notes: humanized scFv-Fc
Regarding B7, in test [1], the concentration giving a half-maximal response (EC50) was 51 nM and the “Maximum mean fluorescence intensity” value came to 2620. In the test with human BCMA-His protein, this molecule came in with a Kd of 0.307 nM, a koff of 0.000334 s⁻¹ and a kon of 1.09e+06 M⁻¹ s⁻¹. Besides, in test [2], the half-maximal effective concentration (EC50) was 18.6 nM and the “Maximum mean fluorescence intensity” value came to 15200.

B8: BCMA-02 VL3VH8 (Fc fusion)
scFv: EVQLVESGGGVVQPGRSLRLSCASNAYEFPSYDMSWVRQAPGKGLELVAAINSDGGITYYPDTMERRFTISRDNTKKTLYLQMSSLRAEDTAVYYCARHGYGGGAYVLDYWGQGTTVTVSSGGGGSGGGGSGGGGSDIQMTQSPSSVSASVGDRVTITCKASQNVGTAVAWYQQKPGKSPKVLIYSASSRYTGVPSRFSGSGSGTDFTLTISSLQPEDFADYYCQQYSNYHLTFGQGTKLEIK[human IgG1 Fc with C220S (EU numbers) not spelt out]
notes: humanized scFv-Fc
Take B8: in test [1], the EC50 was 21.6 nM and the “Maximum mean fluorescence intensity” value was 2730. In the test with human BCMA-His protein, this molecule yielded a Kd of 0.412 nM, a koff of 0.000356 s⁻¹ and a kon of 863000 M⁻¹ s⁻¹. In test [2], the midpoint of the response, the EC50, lay at 16.4 nM and the “Maximum mean fluorescence intensity” value amounted to 14100.

B9: BCMA-02 VL3VH9 (Fc fusion)
scFv: B8 scFv with A23E
notes: humanized scFv-Fc
On to B9, for which, in test [1], the midpoint of the response, the EC50, lay at 42.5 nM and the “Maximum mean fluorescence intensity” value was found to be 2760. In the test with human BCMA-His protein, this molecule registered a Kd of 0.415 nM, a dissociation rate constant (koff) of 0.000356 s⁻¹ and an on-rate (kon) of 858000 M⁻¹ s⁻¹. Further, in test [2], the midpoint of the response, the EC50, lay at 20.6 nM and the “Maximum mean fluorescence intensity” value was found to be 14600.

B10: BCMA-04 VL2VH3a (Fc fusion)
scFv: EVQLVQSGAEVKKPGSSVKVSCKASGYSFTSYGISWVRQAPGQGLEWMGEIYPRDQITYYNEKFKGRVTLTADKSTSTAYMELSSLRSEDTAVYYCARHDYYYVNSVSAMDYWGQGTTVTVSSGGGGSGGGGSGGGGSDIQMTQSPSSLSASVGDRVTITCKSSQSLLYSSNQKNYLAWYQQKPGKSPKLLIYWASTRYSGVPSRFSGSGSGTDFTLTISSLQPEDFATYYCQQYYIYPWTFGGGTKVEIK[human IgG1 Fc with C220S (EU numbers) not spelt out]
Consider B10, for which, in test [1], the midpoint of the response, the EC50, lay at 16.2 nM and the “Maximum mean fluorescence intensity” value stood at 3720. In the test with human BCMA-His protein, this molecule had a dissociation constant Kd of 0.124 nM, a koff of 0.000114 s⁻¹ and a kon of 926000 M⁻¹ s⁻¹. Besides, in test [2], a half-maximal response (EC50) required 11 nM and the “Maximum mean fluorescence intensity” value was 8850.

In general, EC50 refers to the concentration needed to bring the measured effect to its halfway point. Lower therefore signals a more potent agent. As usually defined, the Kd is the constant that tells how readily two partners part at equilibrium. High values mean weaker binding, low ones tighter binding. The koff is the rate constant with which the complex falls apart. The low end stands for a long-lived complex, the high end for a short-lived complex. Broadly, the kon is the second-order rate constant of association. Low values mean slow association, high ones fast association.
